Assay results taken from paper PMC5892938.
This is one part of the list. At the low end of the ranking the order means little.

Each sequence was assayed against GST-SBP-SLBP (stem-loop binding protein) (UniProt Q14493) (assay: targeted RNA Bind-n-Seq). Conditions: RBNS binding buffer: 25 mM Tris pH 7.5, 150 mM KCl, 3 mM MgCl2, 0.1% Tween, 0.5 mg/mL BSA, 1 mM DTT; 27 nM protein, 750 pM RNA pool; temperature not stated; high values mean tight binding.
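Further: DESeq read counts versus GST-SBP nonspecific binding control pulldown.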

Row | Sequence | binding signal (log2 fold change)
1 | GGUCACGUCUCAAUCAACUCUAUUUCCAGGGAAACCCCUGGUAUACUCAACAGCUCGCAGUCAAG | 0.0287
2 | GGUCACGUCUCAAUCAACUCUUUUCCAGGAGUUUCCUCCUGUUUUUUCAACAGCUCGCAGUCAAG | -0.0353
3 | GGUCACGUCUCAAUCAACUCUUUAGAGGGGGGGAAAACCCCUUUACCCUCACAUUCAACAGCUCGCAGUCAAG | -0.184
4 | GGUCACGUCUCAAUCAACUCAAUUUCAGGAGUUUCCUCCUGCUAUCUCAACAGCUCGCAGUCAAG | -0.0542
5 | GGUCACGUCUCAAUCAACUCUUCUUCCAGGGAAAUCCCUGGUAAUCUCAACAGCUCGCAGUCAAG | 0.043
6 | GGUCACGUCUCAAUCAACUCAUCUCCAGGAGUUUUCUCCUGUUUUUUCAACAGCUCGCAGUCAAG | -0.112
7 | GGUCACGUCUCAAUCAACUCAAUCCCAGGAGUUUCCUCCUGCAUUUUCAACAGCUCGCAGUCAAG | -0.0288
8 | GGUCACGUCUCAAUCAACUCUACGCCAGGAGUUUUCUCCUGUUAUUUCAACAGCUCGCAGUCAAG | 0.147
9 | GGUCACGUCUCAAUCAACUCUUUCUCAGGAGUUUACUCCUGCAAUUUCAACAGCUCGCAGUCAAG | 0.112
10 | GGUCACGUCUCAAUCAACUCUAGGUCAGGAGUUUCCUCCUGUAAUUUCAACAGCUCGCAGUCAAG | -0.146
11 | GGUCACGUCUCAAUCAACUCACUAGAGGGGGGGAAAACCCCUUUGCCCUCACUUUCAACAGCUCGCAGUCAAG | -0.216
12 | GGUCACGUCUCAAUCAACUCUUUUCCCAGGGAAAACCCUGGCUAACUCAACAGCUCGCAGUCAAG | -0.101
13 | GGUCACGUCUCAAUCAACUCUACUCCCAGGGAAAGCCCUGGCUUUUUCAACAGCUCGCAGUCAAG | -0.0809
14 | GGUCACGUCUCAAUCAACUCAAGUCCAGGAGUUUACUCCUGCUAUCUCAACAGCUCGCAGUCAAG | 0.254
15 | GGUCACGUCUCAAUCAACUCCCAAGAGGGGGGGAAAACCCCUUUACCCUCAAAUUCAACAGCUCGCAGUCAAG | 0.0813
16 | GGUCACGUCUCAAUCAACUCUUCCCCCAGGGAAAUCCCUGGUUAUCUCAACAGCUCGCAGUCAAG | 0.208
17 | GGUCACGUCUCAAUCAACUCUAUCCCCAGGGAAAGCCCUGGUAAUCUCAACAGCUCGCAGUCAAG | -0.293
18 | GGUCACGUCUCAAUCAACUCAAUUUCCAGGGAAAUCCCUGGUUUUUUCAACAGCUCGCAGUCAAG | -0.0357
19 | GGUCACGUCUCAAUCAACUCAAUCCCAGGAGUUUACUCCUGUUAACUCAACAGCUCGCAGUCAAG | -0.132

Row | Sequence | binding signal (log2 fold change)
20 | GGUCACGUCUCAAUCAACUCACACGAGGGGGGGAAAACCCCUUUACCCUCAACUUCAACAGCUCGCAGUCAAG | -0.107
21 | GGUCACGUCUCAAUCAACUCAUUCGAGGGGGGGAAAACCCCUUUACCCUCAUUCUCAACAGCUCGCAGUCAAG | -0.37
22 | GGUCACGUCUCAAUCAACUCAAUUUCCAGGGAAAUCCCUGGCUAACUCAACAGCUCGCAGUCAAG | 0.199
23 | GGUCACGUCUCAAUCAACUCUAUCGCAGGAGUUUACUCCUGGUAUUUCAACAGCUCGCAGUCAAG | 0.0765
24 | GGUCACGUCUCAAUCAACUCAUCUUCCAGGGAAAUCCCUGGUUAAUUCAACAGCUCGCAGUCAAG | -0.0583
25 | GGUCACGUCUCAAUCAACUCAAUUCCCAGGGAAAGCCCUGGUUUUCUCAACAGCUCGCAGUCAAG | -0.0102
26 | GGUCACGUCUCAAUCAACUCAAUCCCAGGAGUUUACUCCUGUUUUUUCAACAGCUCGCAGUCAAG | 0.0279
27 | GGUCACGUCUCAAUCAACUCAAUAGAGGGGGGGAAAACCCCUUUGCCCUCAAACUCAACAGCUCGCAGUCAAG | 0.175
28 | GGUCACGUCUCAAUCAACUCUACUCCCAGGGAAACCCCUGGCUUACUCAACAGCUCGCAGUCAAG | 0.229
29 | GGUCACGUCUCAAUCAACUCUACUUCCAGGGAAAUCCCUGGUUUUUUCAACAGCUCGCAGUCAAG | -0.107
30 | GGUCACGUCUCAAUCAACUCAACUCCCAGGGAAAACCCUGGUUAUUUCAACAGCUCGCAGUCAAG | -0.253
31 | GGUCACGUCUCAAUCAACUCUUUUCCCAGGGAAAUCCCUGGUAUACUCAACAGCUCGCAGUCAAG | 0.016
32 | GGUCACGUCUCAAUCAACUCUUUUUCCAGGGAAAUCCCUGGCAAUUUCAACAGCUCGCAGUCAAG | -0.0146
33 | GGUCACGUCUCAAUCAACUCUUUCUCCAGGGAAAUCCCUGGCAUAUUCAACAGCUCGCAGUCAAG | 0.278
34 | GGUCACGUCUCAAUCAACUCUAUCCCAGGAGUUUCCUCCUGUAAACUCAACAGCUCGCAGUCAAG | -0.02
35 | GGUCACGUCUCAAUCAACUCCAAAGAGGGGGGGAAAACCCCUUUACCCUCGAUAUCAACAGCUCGCAGUCAAG | 0.139
36 | GGUCACGUCUCAAUCAACUCCAAAGAGGGGGGGAAAACCCCUUUACCCUCAUAAUCAACAGCUCGCAGUCAAG | -0.269
37 | GGUCACGUCUCAAUCAACUCAUCCCCAGGAGUUUACUCCUGUUUAGUCAACAGCUCGCAGUCAAG | 0.458
